The other results are listed elsewhere or left out. Viral Rep nickase domains cut single-stranded DNA in vitro (1 h at 37 °C, 3 µM enzyme); the outer parts of the 90-letter strands are left off. Uncut reads are compared with the no-enzyme pool on a log2 scale; more negative means more cut, near 0 not cut, and no call is made. Because reads are shares of a total, they shift together; where an enzyme cuts many sequences, the uncut ones exceed 0.
How the values were obtained:
Test in all cases: uncleaved DNA left, log2 of reads against the no-enzyme library (log2 ratio); higher = less cleavage (more negative = more Rep cleavage of the k-mer); sequences stand for … in CTCGTCCG…ACCGGAGA
[1] = tested on: T1, Rep nickase domain of Muscovy duck circovirus
T1 sequence (Rep 1-111, printed without the tag): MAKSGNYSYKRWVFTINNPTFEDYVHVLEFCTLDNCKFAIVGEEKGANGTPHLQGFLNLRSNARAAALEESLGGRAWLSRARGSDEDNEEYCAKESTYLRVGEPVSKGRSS
Experimental: (§1)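 A pool of 90-nt single-stranded DNAs with seven random bases just before the constant AC of the nick site (name = the seven bases) was cut by 3 µM recombinant His6-SUMO-tagged Rep nickase domain (300 nM DNA, 50 mM HEPES pH 8.0, 50 mM NaCl, 1 mM MnCl2, 1 h, 37 °C, three replicates). Uncut DNA was amplified and sequenced.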

[2] = tested on: T2, Rep nickase domain of banana bunchy top virus
T2 sequence (Rep 1-94, printed without the tag): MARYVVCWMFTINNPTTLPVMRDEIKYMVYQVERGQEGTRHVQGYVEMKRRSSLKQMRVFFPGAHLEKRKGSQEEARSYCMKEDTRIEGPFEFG
Experimental: as §1

[3] = tested on: T3, Rep nickase domain of cabbage leaf curl virus
T3 sequence (Rep 1-116, printed without the tag): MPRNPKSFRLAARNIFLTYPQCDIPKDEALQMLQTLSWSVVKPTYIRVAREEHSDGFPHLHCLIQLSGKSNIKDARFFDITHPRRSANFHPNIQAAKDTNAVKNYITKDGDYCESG
Experimental: as §1

[4] = tested on: T4, Rep nickase domain of chickpea chlorotic dwarf virus
T4 sequence (Rep 1-124, printed without the tag): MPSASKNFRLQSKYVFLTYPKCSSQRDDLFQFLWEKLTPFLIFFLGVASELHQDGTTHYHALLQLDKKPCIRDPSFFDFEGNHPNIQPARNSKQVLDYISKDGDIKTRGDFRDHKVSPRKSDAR
Experimental: as §1

[5] = tested on: T5, Rep nickase domain of faba bean necrotic yellows virus
T5 sequence (Rep 1-98, printed without the tag): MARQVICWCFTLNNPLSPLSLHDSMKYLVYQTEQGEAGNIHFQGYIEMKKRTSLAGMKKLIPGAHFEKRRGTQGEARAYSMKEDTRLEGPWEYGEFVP
Experimental: as §1

[6] = tested on: T6, Rep nickase domain of maize striate mosaic virus
T6 sequence (Rep 1-117, printed without the tag): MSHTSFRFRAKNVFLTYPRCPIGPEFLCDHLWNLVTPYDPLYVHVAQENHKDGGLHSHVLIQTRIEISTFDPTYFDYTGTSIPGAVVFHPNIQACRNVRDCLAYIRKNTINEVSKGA
Experimental: as §1

[7] = tested on: T7, Rep nickase domain of porcine circovirus 2
T7 sequence (Rep 2-116, printed without the tag): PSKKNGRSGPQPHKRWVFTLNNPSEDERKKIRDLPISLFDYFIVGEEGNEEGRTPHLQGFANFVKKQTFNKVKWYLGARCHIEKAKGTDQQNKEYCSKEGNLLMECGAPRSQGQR
Experimental: as §1

[8] = tested on: T8, Rep nickase domain of tomato yellow leaf curl virus
T8 sequence (Rep 1-136, printed without the tag): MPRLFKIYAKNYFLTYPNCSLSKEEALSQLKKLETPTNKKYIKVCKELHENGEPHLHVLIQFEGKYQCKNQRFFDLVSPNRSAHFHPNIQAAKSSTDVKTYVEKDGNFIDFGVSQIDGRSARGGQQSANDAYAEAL
Experimental: as §1

[9] = tested on: T9, Rep nickase domain of wheat dwarf virus
T9 sequence (Rep 1-137, printed without the tag): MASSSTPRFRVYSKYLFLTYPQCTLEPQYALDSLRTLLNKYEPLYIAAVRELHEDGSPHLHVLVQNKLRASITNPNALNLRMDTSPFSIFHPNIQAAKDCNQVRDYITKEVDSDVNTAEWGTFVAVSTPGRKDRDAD
Experimental: as §1

Sequence	uncleaved DNA left (log2) [1]	uncleaved DNA left (log2) [2]	uncleaved DNA left (log2) [3]	uncleaved DNA left (log2) [4]	uncleaved DNA left (log2) [5]	uncleaved DNA left (log2) [6]	uncleaved DNA left (log2) [7]	uncleaved DNA left (log2) [8]	uncleaved DNA left (log2) [9]
ACAACCT	-0.0772	0.0585	-0.275	-2.08	0.043	-0.396	-0.254	-0.0778	-0.0162
TTAACAC	0.13	0.0536	-0.345	-1.54	-0.0104	-0.408	0.0704	0.156	0.00373
TCCAGTC	-0.137	-0.241	-0.0783	-0.493	-0.0662	-1.04	-0.0797	-0.204	-0.33
TACTCTT	-3.8	-3.56	-3.16	-3.4	-0.662	-1.21	-3.7	-0.258	-1.29
TTTTATC	0.0187	0.0747	0.259	0.112	0.0529	-0.271	-0.09	0.156	0.0301
GGTACTG	0.0137	0.00846	0.2	0.927	0.0478	1.72	0.123	0.109	0.0925
TTGGTGC	-0.0508	-0.0671	-0.512	-0.681	-0.0217	-1.05	-0.0294	0.05	-0.166
GTAAAAT	-0.00988	0.0382	0.268	0.811	0.0919	1.79	0.172	0.0995	0.133
AGGCATT	0.216	0.0136	0.828	1.77	0.0261	2.1	0.239	0.0717	0.35
CCGTCCT	-0.543	-0.155	-0.131	-1.62	-0.328	-0.234	-2.31	-0.138	-0.323
CCTATCG	0.00883	0.127	-0.641	0.172	0.0112	-1.05	0.0802	-0.0995	-0.0982
GATTCCG	-0.0741	-0.0772	-0.539	-0.391	-0.0385	-0.925	-0.0112	-0.00738	-0.0942
TACTTCC	-0.299	-0.0249	-0.0831	-1.38	0.0573	-0.497	-1.36	-0.0219	0.0434
CCTCTTG	0.0214	-0.0605	-0.623	-1.34	0.147	-1.09	0.0367	0.0412	-0.153
TTCATGG	0.0459	0.0723	0.494	1.12	0.0383	1.08	0.221	-0.0173	0.0642
CCACACT	0.11	0.0494	-0.862	-2.83	0.0225	-0.836	-0.3	0.0603	-0.457
ACAGGCT	0.0438	0.0919	-0.453	-0.895	0.0965	-0.632	0.239	0.115	-0.0673
GGTGTTG	-0.0984	-0.181	0.0423	0.27	0.00907	0.289	0.0733	-0.0536	-0.0326
CTCAATC	0.0214	0.0342	-0.389	0.234	-0.0655	-0.13	-0.145	-0.0498	0.0648
CTTTAAA	-0.154	-0.0279	-0.112	-0.356	-0.0565	-0.755	-0.0754	-0.109	-0.117
ACTGTGA	0.0731	-0.0173	-0.428	-0.348	0.0215	-0.984	0.0584	0.00757	-0.0707
AACAACC	-0.125	-0.0507	-0.126	-2.05	-0.0625	-0.657	-0.628	-0.0562	-0.00187
TAAGCCT	-0.192	-0.0686	-3.18	-3.11	-0.0768	-1.38	-0.45	-0.0487	-2.09
TAGTGAC	-0.131	-0.0263	0.207	0.584	-0.117	0.623	-0.292	-0.0674	-0.0451
CACGATA	-0.0846	0.00359	-0.285	-2.18	0.026	-0.574	-0.116	-0.171	-0.12
TACCGTC	-0.0857	-0.0301	-0.18	-1.07	-0.0356	-0.881	-0.356	-0.106	-0.0431
GTTCGGC	0.129	0.0217	0.287	0.816	0.0148	0.869	0.136	0.0153	0.0435
TACCCCT	-0.0197	-0.00522	-2.16	-2.71	-0.0467	-1.24	-2.02	-0.0594	-0.301
CCACACG	0.0424	0.0207	-0.843	-0.136	0.0346	-0.833	0.109	-0.0675	-0.194
TATGGTG	0.052	-0.0151	-0.613	-0.644	0.0416	-1.13	0.123	0.0222	-0.154

Source: the supplement of paper PMC7826260
